Data reported in paper PMC12136788.
Numbering of substitutions follows the chain as printed. The list shows a part of the results.

T1: UNK ZnF1-6 (called full-length) (human, UniProt Q9C0B0 30-357)
T1 sequence: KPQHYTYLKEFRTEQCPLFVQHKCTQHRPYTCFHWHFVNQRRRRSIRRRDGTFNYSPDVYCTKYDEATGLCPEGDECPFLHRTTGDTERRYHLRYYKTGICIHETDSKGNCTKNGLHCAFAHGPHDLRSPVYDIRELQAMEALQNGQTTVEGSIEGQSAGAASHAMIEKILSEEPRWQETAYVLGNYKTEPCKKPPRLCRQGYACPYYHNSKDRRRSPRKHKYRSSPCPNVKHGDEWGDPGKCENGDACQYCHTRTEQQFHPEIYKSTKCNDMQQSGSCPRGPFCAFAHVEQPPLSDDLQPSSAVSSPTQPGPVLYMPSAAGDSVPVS

B1: chr3:69085097:69085224:+|CDS|ENSG00000144746|unk|FALSE|bound_elsewhere (ssRNA)
RNA: GGGAGUUCUACAGUCCGACGAUCGGGUUCCGAUCGCUUUGCCCGGCCGGACUUCAGGGACAUUUCCAAAUGGAACAACCGCGUAGUGAGCAACCUGCUCUAUUACCAGACCAACUACCUGGUGGUGGCUGCCAUGAUGAUUUCCAACAGAGGAUUGAGCAUCA
B2: ENSG00000136451:be:win_4151|3pUTR|ENSG00000136451|bound_else_gene|NA|bound_elsewhere_windowed (ssRNA)
RNA: GGGAGUUCUACAGUCCGACGAUCUGUUGAAGGCACGACAGCCACUGCUCUACGAAAAGGCAGAGUACGUUUUUCCCUUCUGGUUGUAACCUGGUUGAGAGCUUCCCCUUUAUCAGAUUGGCAGCUAAACAGUUGUAUUAGAUACAACAGAGGAUUGAGCAUCA
B3: ENSG00000198589:be:win_6201|CDS|ENSG00000198589|bound_else_gene|NA|bound_elsewhere_windowed (ssRNA)
RNA: GGGAGUUCUACAGUCCGACGAUCUAGCCUGAGCACACCAGCUCAGCUUGUGGCCCCCUCUGUUGUAGUAAAGGGCACUCUUUCUGUCACCUCCUCCGAACUCUAUUUUGAGGUGGAUGAAGAGGAUCCUAACUUCAAAAAAAUCAACAGAGGAUUGAGCAUCA
B4: chr15:57953423:57955269:-|three_prime_utr|ENSG00000128918|control|control|control (ssRNA)
RNA: GGGAGUUCUACAGUCCGACGAUCGAAGGCCAAGAAGGAGGAUGAAGCCCAGCCUGCACGUCUGUCCCUCUCUGCUUUCUCUGUAGGGCCCAGCUCUCAGGAAUACAAAGUUGAGCCACGGUCCUUACUUAAAGAUUGAAAAGACAACAGAGGAUUGAGCAUCA
B5: ENSG00000136451:be:win_801|CDS|ENSG00000136451|bound_else_gene|NA|bound_elsewhere_windowed (ssRNA)
RNA: GGGAGUUCUACAGUCCGACGAUCUGCUGCCUUUGCCACCAAAGACAGACUGCGGACACACAUGGUGCGCCAUGAAGGCAAGGUAUCAUGUAACAUCUGUGGGAAGCUCCUGAGUGCAGCAUACAUCACCAGCCACUUAAAGACCAACAGAGGAUUGAGCAUCA
B6: chr13:44143149:44143917:-|three_prime_utr|ENSG00000139656|control|control|control (ssRNA)
RNA: GGGAGUUCUACAGUCCGACGAUCUCAGGCAAGACUCAGGACUGCUCUGGACAUUCAGAAGCUGAGUGUGCAAGUGUGCUGUGUAGUUCAAGGCCACCACCACUGAAGAGGCCAAGGACACCUUAGUAGGAAUUCUAACCUGGCCAACAGAGGAUUGAGCAUCA
B7: ENSG00000070961:be:win_4651|3pUTR|ENSG00000070961|bound_else_gene|NA|bound_elsewhere_windowed (ssRNA)
RNA: GGGAGUUCUACAGUCCGACGAUCACAUGUUAGUUUAGUGAUGUCUUGGUGAACUGUGAGUGAACUGUAUUGAUUUUUCUAAUCUUUAGAGACCUUCACACAGCAUGAGGGCUGUUGGCAUUUUGAAAAAGGUUAAUAAGUAGACAACAGAGGAUUGAGCAUCA
B8: chr18:9283235:9283336:+|3pUTR|ENSG00000101745|msi1|FALSE|bound_elsewhere (ssRNA)
RNA: GGGAGUUCUACAGUCCGACGAUCCUGAUGGUUCAACCAGAGGUCUGGGAAAUAGCACUGUUGGCCCAAACAGAACAGGCUUUUAGAAGAUAAAAGCGACAAGAAGGAAUCUGGUGAAUUUUAGUCAUCCCAGCUUUUUAGUCUCAACAGAGGAUUGAGCAUCA
B9: ENSG00000198589:be:win_8601|3pUTR|ENSG00000198589|bound_else_gene|NA|bound_elsewhere_windowed (ssRNA)
RNA: GGGAGUUCUACAGUCCGACGAUCAAGUACCUGGAGCAUCAUUCUCUUCUACCACAUCUGAAUGUAACUUAAAUUUGCUCAAAGAAGCAAAAUAUUUUUUAAAGUUAUUAAUAAUUGCUAUUUUUGUAGUCUUUGCUUGACUUUCAACAGAGGAUUGAGCAUCA
B10: chr6:110632029:110632161:-|CDS|ENSG00000155111|control|control|control (ssRNA)
RNA: GGGAGUUCUACAGUCCGACGAUCCAUGGGUUUUGCCAGAUUAUUCAAUUCUCCUCUAAAGCCACUAGCAGAUUUGGAUCCAGUAGUUGUGACAUUUUGGUAUCGGGCUCCAGAACUUUUGCUUGGUGCAAGGCAUUAUACAAACAACAGAGGAUUGAGCAUCA
B11: chr2:121605696:121605828:-|CDS|ENSG00000074054|unk|total|mutant (ssRNA)
RNA: GGGAGUUCUACAGUCCGACGAUCGACCGACUAUUUCUCAGACAAACAGAAGUCUGCUGACCUUGAGCAUGACCAGACCAUGUCCGAUAAACUUGUGGAUGGACUUGCUACCUCUUGGGUGAACUCCCGCAAUUACAAGGUAAGCAACAGAGGAUUGAGCAUCA
B12: chrX:71101288:71101389:+|CDS|ENSG00000184481|unk|FALSE|unique (ssRNA)
RNA: GGGAGUUCUACAGUCCGACGAUCGGAGGCCCUGCUCACCUCUGAUACGCCACCACCCCCUGCUGACGUCCUCAUGACCCAGGUAGAUCCCAUUCUGUCCCAGGCUCCGACUCUUCUGUUGCUGGGGGGGCUUCCUUCCUCCAGCAACAGAGGAUUGAGCAUCA
B13: ENSG00000136451:be:win_1551|CDS_3pUTR|ENSG00000136451|bound_else_gene|NA|bound_elsewhere_windowed (ssRNA)
RNA: GGGAGUUCUACAGUCCGACGAUCAUCACCGCCUUGGUAAACAGUAUUAUAAAAUCAAAAUAUGGGUAAAAGUAAAUAUUUACCAGCAACUUAACUUUUAGUUGAUUAAAGCAAAAAGUAAACCAUGAAAUUGGGAGAUUUUAUCAACAGAGGAUUGAGCAUCA
B14: chr2:148946928:148947042:+|CDS|ENSG00000168280|unk|FALSE|bound_elsewhere (ssRNA)
RNA: GGGAGUUCUACAGUCCGACGAUCGAAUGAACACAGCUCUAGAAGUCACAGUAUCUUCCUGAUAAAUAUUAAACAAGAGAAUGUAGAGACUGAAAAAAAACUCAGUGGGAAACUUUAUUUGGUUGAUUUGGCUGGGAGCGAAAACAACAGAGGAUUGAGCAUCA
B15: chr22:40826605:40826706:-|CDS|ENSG00000100380|unk|FALSE|bound_elsewhere (ssRNA)
RNA: GGGAGUUCUACAGUCCGACGAUCCACCAAAUUACAGGUCUAAAUAAGAGAUGGAAUUUAGGAUAAUAAACUUACUGACCCAGUAGGACACUUUUUAAAUACUAAUGAACCCUUUCUUUUCAGGAUCCAGAAGUUAUGGUGGCUCAACAGAGGAUUGAGCAUCA
B16: chr4:138169334:138169435:-|3pUTR|ENSG00000151012|msi1|total|mutant (ssRNA)
RNA: GGGAGUUCUACAGUCCGACGAUCCCAUUUCACGCAGAAAAAAAGUCAGCCAGUAAUUAAGAAAAAAAGUGAUGGAGAUUAAGCCGUAUUUUGGCUUAUUUUCCGGACUCAUCAUGAGAAGACACAGUUCCUUUAAUCAGGAAACAACAGAGGAUUGAGCAUCA
B17: ENSG00000111670:stop:overlap|stop_codon|ENSG00000111670|stop_codon|NA|stop_codon (ssRNA)
RNA: GGGAGUUCUACAGUCCGACGAUCGGAAGAUAUUUCCCAGAAGGAGGAUACACAAAGAAGCUAGUCCCAAUCGAAUCAGAGUAUAGAAGAUCUUCAUUUGAAAACCAUCUACCUCAGCAUUUACUGAGCAUUUUAAAACUCAGCCAACAGAGGAUUGAGCAUCA
B18: ENSG00000198589:be:win_7851|CDS|ENSG00000198589|bound_else_gene|NA|bound_elsewhere_windowed (ssRNA)
RNA: GGGAGUUCUACAGUCCGACGAUCAAGAUUGAUCCAAGUGGUGUUUGGCCAUUGGGAUGUCGUCACUUGCCUUGCUCGUUCUGAGUCAUAUAUUGGGGGAAAUUGCUACAUUCUCUCAGGGUCACGUGAUGCAACUCUUUUGCUCAACAGAGGAUUGAGCAUCA
B19: chr1:228407934:228408200:-|three_prime_utr|ENSG00000162931|control|control|control (ssRNA)
RNA: GGGAGUUCUACAGUCCGACGAUCGGCCUUCUGCUUACUGCAGGCCACCUGCCAGGGUUCUCUGGCAUCACGCUGGCAGCCAUUAGACACACAGGGGGGUUUCUCAAAUUCUAAAUAUAAUUGUGAUUAGAACUGUCAAACAUUCAACAGAGGAUUGAGCAUCA
B20: chr22:40826605:40826706:-|CDS|ENSG00000100380|unk|total|mutant (ssRNA)
RNA: B15 RNA with U58C, A59C, U83C, A84C
B21: chr10:37949572:37952126:-|three_prime_utr|ENSG00000175395|control|control|control (ssRNA)
RNA: GGGAGUUCUACAGUCCGACGAUCUAAUCCUUCAAAACAAUCAGAUAAUUCACACAAGAGGUACACCUUAUGAAUCGCAUCAAUAGAGGGAAAUUUUCAGCUACAAUCUUUGCUCUCUCUGUGUAUCAGCAAAUACAUAGAGAGCAACAGAGGAUUGAGCAUCA
B22: chr4:100187679:100188167:-|CDS|ENSG00000145358|control|control|control (ssRNA)
RNA: GGGAGUUCUACAGUCCGACGAUCACACUUGUGUUUAAGCAGGAGAACUGCUCAUGGACUAGCUUCAGGGACUUUUUCUUUAGUAGAGGUCGCUUCUCCUCUGGUUUCAGGAGAACUCUGAUCCUCAGCUCAGGAUUUCGACUUCAACAGAGGAUUGAGCAUCA

Target: T1, UNK ZnF1-6 (called full-length)
Assay: nsRBNS (natural sequence RNA bind-n-seq); RBNS binding buffer (assumed for nsRBNS): 25 mM Tris pH 7.5, 150 mM KCl, 3 mM MgCl2, 0.01% Triton X-100, 500 ug/ml BSA, 20 U/ml SUPERase-In, 4 C; UNK is unkempt and MSI1 is Musashi-1; names of the RNAs are library labels; protein concentration not given here; high values mean tight binding

Binder | binding signal [enrichment R]
B1 | 0.785
B2 | 0.49
B3 | 0.534
B4 | 0.542
B5 | 0.478
B6 | 0.867
B7 | 1.36
B8 | 0.774
B9 | 0.767
B10 | 0.618
B11 | 0.761
B12 | 0.705
B13 | 0.46
B14 | 0.471
B15 | 0.607
B16 | 0.35
B17 | 1.06
B18 | 0.376
B19 | 0.937
B20 | 0.405
B21 | 0.375
B22 | 0.554
